# According to paper PMC9308218, “FBXL17/spastin axis as a novel therapeutic target of hereditary spastic paraplegia” (Cell & Bioscience, 2022):
# T1: GST-SPAST-M1 (human, UniProt Q9UBP0 1-616)
# T1 construct: also called GST-tagged SPAST-M1; GST-tagged SPAST; source: E. coli BL21 (pGEX4T1-GST-SPAST-M1), purified (glutathione sepharose)
# T1 sequence (looked up): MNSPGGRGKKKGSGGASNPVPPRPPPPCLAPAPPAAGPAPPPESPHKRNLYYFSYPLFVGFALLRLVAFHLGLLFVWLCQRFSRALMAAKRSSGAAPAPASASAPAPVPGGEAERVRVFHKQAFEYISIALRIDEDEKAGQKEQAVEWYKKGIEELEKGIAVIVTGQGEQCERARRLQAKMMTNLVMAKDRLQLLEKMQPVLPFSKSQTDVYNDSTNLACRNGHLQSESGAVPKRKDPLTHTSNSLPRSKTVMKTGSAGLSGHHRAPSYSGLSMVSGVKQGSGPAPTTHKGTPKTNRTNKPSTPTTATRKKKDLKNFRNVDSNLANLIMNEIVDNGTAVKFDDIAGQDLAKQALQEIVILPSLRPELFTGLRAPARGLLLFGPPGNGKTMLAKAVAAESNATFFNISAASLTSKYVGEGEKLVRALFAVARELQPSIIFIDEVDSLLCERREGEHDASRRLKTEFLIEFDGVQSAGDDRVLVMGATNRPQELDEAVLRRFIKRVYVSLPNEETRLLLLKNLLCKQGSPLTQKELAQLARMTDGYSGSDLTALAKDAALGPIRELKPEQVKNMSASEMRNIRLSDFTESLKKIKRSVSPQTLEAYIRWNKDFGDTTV
# B1: His-tagged FBXL17-ΔNT1 ([…]a.a.) (domain or fragment)
# chain: not shown
# notes: F-box and leucine-rich repeat protein 17, human, […] (a supplementary legend prints […]); also called His-FBXL17-ΔNT1; source: E. coli BL21 (pET28a-His-FBXL17-ΔNT1), purified (Ni-NTA)
# Target: T1, GST-SPAST-M1
# Assay: pull-down; in vitro binding assay: purified recombinant proteins from E. coli, 0.5 μg each in 200 μl 1 × PBS, 0.1% NP-40, pulled down with glutathione sepharose beads (Fig. 2I)
# Details: both partners purified
binder,measurement,value
B1,binding result,binds
